From PubChem BioAssay AID686971 (National Center for Advancing Translational Sciences (NCATS), 2013)
The campaign covered roughly 360,000 compounds. About 7,500 (2.1%) were called active. This list was built around the results that the source calls inconclusive (neither active nor inactive); the mix of calls is not that of the screen. Calls come from the whole dose curve; as a rule, active = well fitted cell-killing curve with a large enough effect; inconclusive = small, poorly fitted or top-dose-only effect, or effect the other way, or another doubt; inactive = no such curve, though single readings can be large or run the other way. Potencies of inconclusive entries are left out as doubtful fits.

assay: qHTS for induction of synthetic lethality in tumor cells producing 2HG: qHTS for the HT-1080-IDH1KD cell line; conditions: HT-1080 IDH1 knockdown viability, ATP luminescence, 48 h; activity, negative = toxicity: at 46.1 µM (top of the series) unless noted;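 for activity, negative = toxicity: 0% = DMSO wells and -100% = cell-free medium wells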
Method in brief: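 % activity derives from luminescence (CellTiter-Glo), normalised to DMSO and no-cell wells. HT-1080-IDH1KD cells, 750/well, had 48 h compound exposure at 37 °C.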
Potency is the fitted concentration of half-maximal effect; tags give direction and shape of the fitted curve.

Row | SMILES | Potency | activity, negative = toxicity
1 | CCn1c(SCC(=O)N/N=C/c2c[nH]c3ccccc23)nnc1-c1ccc(C(C)(C)C)cc1 | inconclusive [cytotoxic, single point] | –
2 | COc1ccc([N+](=O)[O-])cc1/C=N/Nc1nn[nH]n1 | – | inactive: -2.74%
3 | Cn1cc(CN2CCc3ccccc3C2)c2ccccc21 | inconclusive [cytotoxic, partial curve] | –
4 | CCOC(=O)C1=CCN(S(=O)(=O)c2ccc(C)cc2)C1c1cccc(Cl)c1 (stereo not drawn) | inconclusive [cytotoxic, single point] | –
5 | Cc1cccc(/C=C2\Sc3ccc(C(=O)N4CCC(C)CC4)cc3N(C)C2=O)c1 | inconclusive [cytotoxic, single point] | –
6 | CCCN(C)C[C@@H]1OCCCC[C@@H](C)Oc2ccc(NC(=O)c3ccccc3)cc2C(=O)N([C@H](C)CO)C[C@@H]1C | inconclusive [cytotoxic, single point] | –
7 | Cc1cc2ccccc2c(=O)n1CC(=O)NCc1ccco1 | – | inactive: 3.86%
8 | COc1cc(/C=C/C(=O)c2ccc3c(c2)OCCO3)cc(Br)c1OCC(=O)N(C)C | active: 3.66 µM | –
9 | CCCCCCN1C[C@@H](n2cc(C3CC3)nn2)[C@H](O)C[C@@H]1c1ccc(C)cc1 | inconclusive [cytotoxic, single point] | –
10 | CNc1nc(NCc2ccccc2)c2ccccc2n1 | inconclusive [cytotoxic, single point] | –
11 | CC1(C2CC2)NC(=O)N(CC(=O)Nc2ccc(Cl)c([N+](=O)[O-])c2)C1=O (stereo not drawn) | – | inactive: -7.25%
12 | CN(C)c1ncnc2c1ccn2C1OC(CO)C(O)C1O (stereo not drawn) | active: 2.59 µM | –
13 | CCOc1ccc(C(=O)CC(Sc2ccc(C)cc2)C(=O)O)cc1 (stereo not drawn) | inconclusive [cytotoxic, single point] | –
14 | O=C(NCc1ccco1)c1ccc([N+](=O)[O-])o1 | inconclusive [cytotoxic, single point] | –
15 | CSc1ccc(S(=O)(=O)N2CCC(C(=O)Nc3ccccc3C(F)(F)F)CC2)cc1 | – | inactive: -5.34%
16 | O=C(N/N=C/c1cccc(Oc2ccccc2)c1)c1cccc(O)c1 | active: 20.6 µM | –
17 | C=C(C)c1cccc(C(C)(C)NC(=O)Nc2ccc(Cl)cn2)c1 | inconclusive [cytotoxic, single point] | –
18 | Cc1cc2c3c(c1C)C1(C(=O)N3C(C)(C)CC2C)C(C#N)=C(N)Oc2cc(O)ccc21 (stereo not drawn) | inconclusive [cytotoxic, partial curve, poor fit] | –
19 | Cc1cc(C(=O)COC(=O)c2ccc(O)cc2O)c(C)n1-c1ccc(OC(F)F)cc1 | – | inactive: -19.9%
20 | CCOC(=O)c1sc(SCC(=O)Nc2ccc(N(C)C)cc2)nc1N | inconclusive [cytotoxic, single point] | –
21 | CCCCCCn1c(=O)n2n(c1=O)[C@@H]1CN(S(=O)(=O)c3ccc(C)cc3)C[C@]1(O)[C@@H](OC(=O)NCc1ccccc1F)C2 | inconclusive [cytotoxic, single point] | –
22 | O=C(O)CN1CCN(Cc2ccc(F)cc2Cl)C1=O | inconclusive [cytotoxic, single point] | –
23 | COC(=O)c1c(NC(=O)/C=C/C(=O)O)sc(C)c1-c1ccc(C)cc1 | inconclusive [cytotoxic, single point] | –
24 | S=C(NCCSCc1ccccc1Cl)Nc1ccccc1 | inconclusive [cytotoxic, single point] | –
25 | COc1ccc(-c2oc3cc(O)c(OC)c(O)c3c(=O)c2OC)cc1 | active: 20.6 µM | –

Row | SMILES | Potency | activity, negative = toxicity
26 | COc1cccc(NC(=O)COC(=O)COc2ccccc2[N+](=O)[O-])c1 | – | inconclusive: 31.9%
27 | CCN1CCN(c2cc(C)c3cc(NC(=O)c4ccc(Br)o4)ccc3n2)CC1 | inconclusive [cytotoxic, single point] | –
28 | COc1cccc(NC(=O)CSc2nnc(Cc3cccs3)n2-c2ccc(C)cc2)c1 | inconclusive [cytotoxic, single point] | –
29 | CCN1CCN(CC(=O)N2CCCC(C(=O)c3ccc(Oc4ccccc4)cc3)C2)CC1 (stereo not drawn) | – | inactive: -23.4%
30 | Cc1ccc(/C=C/C(=O)OCC(=O)N(C)c2c(N)n(Cc3ccccc3)c(=O)[nH]c2=O)o1 | – | inactive: -0.515%
31 | O=C(O)CS(=O)(=O)c1ccc(C(F)(F)F)cn1 | – | inactive: -0.37%
32 | O=C1C2CCCN2C(=O)N1CCCN1CCN(c2cccc(Br)c2)CC1 (stereo not drawn) | – | inactive: -2.37%
33 | COc1ccccc1Cc1c(-c2ccc(F)cc2)nc2c(C)cc(Br)cn12 | inconclusive [cytotoxic, single point] | –
34 | O=C(NC(=S)Nc1ccc(N2CCOCC2)cc1)c1ccc2c(c1)OCCO2 | – | inactive: -19.1%
35 | CN(C)S(=O)(=O)c1cccc(NC(=O)CSc2nc3c(cc2C#N)C(=O)CC(C)(C)C3)c1 | inconclusive [cytotoxic, single point] | –
36 | Cc1ncc(CN2CCCC(C(=O)Nc3ccc(-n4ccnc4C)cc3)C2)cn1 (stereo not drawn) | – | inactive: 3.98%
37 | Cc1ccc(C(=O)N2CCN(c3ccccc3F)CC2)cc1S(=O)(=O)N1CCOCC1 | – | inactive: 0.0222%
38 | CN1CC(=O)N2C(c3ccc(Cl)cc3)c3[nH]c4ccccc4c3C[C@H]2C1=O (stereo partly drawn) | inconclusive [cytotoxic, single point] | –
39 | CCC[N+](CC#Cc1ccccc1)(CCC)CC(=O)OC | – | inactive: 14.8%
40 | CCCC(=O)NC(=S)Nc1cccc(Cl)c1N1CCCCC1 | active: 10 µM | –
41 | Cn1c(SC2=CS(=O)(=O)c3ccccc32)nc2ccccc21 | inconclusive [cytotoxic, partial curve] | –
42 | COc1cc(/C=N/Nc2nc(Nc3ccccc3)nc(N3CCCCC3)n2)ccc1OCC(=O)O | – | inactive: 25.8%
43 | O=C(NNC(=S)Nc1cccc(C(F)(F)F)c1)c1ccc(Cl)cc1Cl | inconclusive [cytotoxic, single point] | –
44 | Cc1ccc(NC(=O)C2C(c3ccccc3)C=CC(c3ccccc3)C2C(=O)O)cc1 (stereo not drawn) | – | inactive: -3.49%
45 | O=c1ccsc2ccccc12 | – | inactive: -7.88%
46 | O=S(=O)(NCC(Nc1ccc(Cl)cc1)c1ccccc1)c1ccc(Cl)cc1 (stereo not drawn) | inconclusive [cytotoxic, single point] | –
47 | Cc1ccc2c(c1)C1(C(=O)N2)N2CCCC2C(C(=O)c2ccc3ccccc3c2)C12C(=O)Nc1ccccc12 (stereo not drawn) | inconclusive [cytotoxic, single point] | –
48 | COc1ccccc1/C=C/C(=O)OCC(=O)c1cc(C)n(C)c1C | – | inactive: 19.2%
49 | CC(NC(=O)C1CCN(CCOc2ccc(Cl)cc2)CC1)c1cccc2ccccc12 (stereo not drawn) | inconclusive [cytotoxic, single point] | –
50 | COc1ccc(C(CCNCc2ccc(OC(C)C)cc2)c2ccccc2OC)cc1 (stereo not drawn) | inconclusive [cytotoxic, single point] | –

Row | SMILES | Potency | activity, negative = toxicity
51 | COc1cc2oc(=O)cc(-c3cccc(-c4cccc(C)c4)c3)c2c(OC)c1OC | inconclusive [cytotoxic, single point] | –
52 | COc1ccc(-c2nn(-c3ccccc3)cc2/C=N/N=C(N)N)cc1OC | inconclusive [cytotoxic, single point] | –
53 | CCn1nnnc1SCC(=O)Nc1cc(OC)cc(OC)c1 | – | inactive: -4.08%
54 | Oc1c(CN2CCCCC2)ccc2cccnc12 | active: 3.26 µM | –
55 | Cc1ccc(C2CC(=O)C=C(Nc3ccc(Cl)cc3)C2)cc1 (stereo not drawn) | – | inactive: 4.13%
56 | O=C(/C=C/c1ccccc1)Nc1ccc(Cl)cn1 | active: 4.61 µM | –
57 | COc1ccc(C2(C)NC(=O)N(CC(=O)NC3CC3)C2=O)cc1 (stereo not drawn) | – | inactive: 4.47%
58 | Cc1ccc(Cl)cc1-n1c(SCC(=O)NCCC2=CCCCC2)nc2n[nH]c(C)c2c1=N | inconclusive [cytotoxic, single point] | –
59 | CCOC(=O)N1CCN(c2c(NCc3ccc(Cl)cc3)c(=O)c2=O)CC1 | active: 5.8 µM | –
60 | Oc1ccc(NC(=S)N=Nc2c(O)[nH]c3ccc(Br)cc23)cc1 | active: 20.6 µM | –
61 | NC(=O)C1=C(c2ccccc2)c2ccccc2C1=O | inconclusive [cytotoxic, partial curve] | –
62 | CCCCc1nnc(NC(=O)CCN2C(=O)C3CC=CCC3C2=O)s1 (stereo not drawn) | – | inactive: -1.4%
63 | Oc1ccc2sc(-c3ccccc3O)c(-c3ccc(OCCN4CCCCC4)cc3)c2c1 | active: 16.4 µM | –
64 | CCN(CC)c1ccc(C(=O)NNC(=O)CN2C(=O)NC(C)(c3ccccc3)C2=O)cc1 (stereo not drawn) | – | inactive: 0.763%
65 | O=C(COC(=O)/C=C/C(=O)OCC(=O)NC12CC3CC(CC(C3)C1)C2)NC12CC3CC(CC(C3)C1)C2 | inconclusive [cytotoxic, single point] | –
66 | OC(c1cc(F)cc(Cl)c1)c1ncc(-c2ccc3ccccc3c2)[nH]1 (stereo not drawn) | inconclusive [cytotoxic, single point] | –
67 | CC(=O)NC(c1ccc2ccccc2c1)c1ccc2cccnc2c1O (stereo not drawn) | inconclusive [cytotoxic, full curve, poor fit] | –
68 | CCOC(=O)c1c(CN(C)C)n(C)c2c(O)c(N=NC(N)=O)c3ccc(Br)cc3c12 | inconclusive [cytotoxic, single point] | –
69 | COC(=O)c1cc(Cl)c(NC(=O)C(C)C)cc1OC | – | inactive: 13.1%
70 | Cc1csc(NC(=O)c2ccc3c(c2)OCO3)n1 | inconclusive [cytotoxic, partial curve] | –
71 | C[C@H]1CN([C@@H](C)CO)C(=O)CCCn2nncc2CO[C@@H]1CN(C)S(=O)(=O)c1cccc(F)c1 | – | inactive: -0.782%
72 | O=C(CCNc1ccc(F)c(Cl)c1)c1ccco1 | inconclusive [cytotoxic, single point] | –
73 | O=C(Oc1cccc2cccnc12)c1cccs1 | active: 6.51 µM | –
